Data from US20260193317A1, “COMBINATION THERAPY WITH ACTRIIB RECEPTOR VARIANTS AND GLP-1 AGONISTS” (35PHARMA Inc., priority 2023, published 2026).

T1: BMP-9 (Homo sapiens, UniProt Q9UK05)
T1 sequence (Q9UK05 320-429): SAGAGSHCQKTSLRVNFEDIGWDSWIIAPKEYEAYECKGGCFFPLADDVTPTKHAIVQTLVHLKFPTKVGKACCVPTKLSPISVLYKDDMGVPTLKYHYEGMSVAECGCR

T2: recombinant human activin A (human, UniProt P08476 311-426)
T2 sequence (looked up): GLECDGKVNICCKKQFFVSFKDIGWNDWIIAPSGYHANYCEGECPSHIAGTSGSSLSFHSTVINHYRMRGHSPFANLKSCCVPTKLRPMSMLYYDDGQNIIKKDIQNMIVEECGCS

T3: activin B (UniProt P09529 293-407)
T3 sequence (looked up): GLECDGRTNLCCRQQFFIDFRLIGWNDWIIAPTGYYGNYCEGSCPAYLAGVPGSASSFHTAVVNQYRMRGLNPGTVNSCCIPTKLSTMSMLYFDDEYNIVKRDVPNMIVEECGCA

T4: BMP-9 (UniProt Q9UK05 320-429)
T4 sequence (looked up): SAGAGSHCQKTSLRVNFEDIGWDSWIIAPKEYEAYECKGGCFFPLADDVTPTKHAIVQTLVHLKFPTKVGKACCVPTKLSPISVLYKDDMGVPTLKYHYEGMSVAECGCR

T5: BMP-10 (UniProt O95393 317-424)
T5 sequence (looked up): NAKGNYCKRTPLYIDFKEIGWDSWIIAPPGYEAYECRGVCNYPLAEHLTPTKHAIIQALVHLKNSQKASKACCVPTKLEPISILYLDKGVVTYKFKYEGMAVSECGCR


Legend:
TGFβ superfamily ligands = test: Neutralization profile across TGFβ superfamily ligands (HEK293 and HepG2 reporter assays, summary); assay type: cell-based, human; conditions: all ligands
Experimental: Potency testing by neutralization on cell-based assays. Characterization of the activin A, activin B, GDF-8, and GDF-11 inhibition potency (IC50) of the fusion proteins was performed using a cell-based reporter assay. TGFβ-reporter HEK293 cells were obtained from InvivoGen (San Diego, CA, cat. no. hkb-tgfb) and were maintained following the manufacturer's instructions. Briefly, cells were grown in high-glucose DMEM, containing 10% heat-inactivated FBS, 30 μg/mL blasticidin, 250 μg/mL hygromycin B, and 100 μg/mL zeocin (hereafter, “growth medium”). Once the cells reached 70-80% confluence, they were detached in growth medium by gently tapping on the flask. For all assays, cells were seeded in 96-well plates at a density of 20,000 cells per well in growth medium. Cells were left to attach for 10 minutes at room temperature (RT) prior to being transferred to a 37° C. incubator (5% CO2) overnight. The next day, treatments were prepared by combining the appropriate concentration of agent with activin A, activin B, GDF-8, or GDF-11 for 30 min at RT (shaking at 150 rpm). Treatments were conducted in high-glucose DMEM (serum-free and with no selection agents), and the final concentration of cytokine (ligand) was 0.3 nM. Growth medium was removed from the culture plates, and cells were treated with the appropriate mixes of fusion protein and cytokine. Treatment duration was for 18-22 h at 37° C. (5% CO2). All treatments were performed in technical duplicates and at least one or two independent experiments were conducted for each cytokine. At the end of the treatment period, supernatants were transferred to a new plate, and centrifuged at 300 RPM for 3 min. Forty microlitres of supernatant from each condition was transferred to a new plate, into which 180 μL of Quanti-Blue reagent (InvivoGen, cat. no. rep-qbs) was added. Quanti-Blue reagent was prepared following the manufacturer's instructions. Samples were incubated for 45 min at 37° C. At the end of the incubation, absorbance was read at 650 nm. The data were plotted in GraphPad Prism, which was used to calculate IC50 values as a non-linear regression.
Characterization of the BMP-9 and BMP-10 inhibition potency (IC50) of the fusion proteins was performed using a second cell-based reporter assay. Human hepatic HepG2 cells were transfected with a SEAP-encoding plasmid, in which SEAP expression is under the control of the murine Id1 promoter. A stable pool was generated from this transfection. Cells were grown in EMEM, containing 10% heat-inactivated FBS and 200 μg/mL zeocin (hereafter, “HepG2 growth medium”). […] For all assays, cells were seeded in 96-well plates at a confluence of 100,000 cells per well in HepG2 growth medium. Cells were left to attach for 10 minutes at RT prior to being transferred to a 37° C. incubator (5% CO2) overnight. The next day, treatments were prepared in EMEM (2.5% heat-inactivated FBS and with no selection agents) by combining the appropriate concentration of agent with BMP-9 or BMP-10 for 30 min at RT (shaking at 150 rpm). Treatments were conducted in EMEM (2.5% heat-inactivated FBS and with no selection agents), and the final concentration of BMP-9 and BMP-10 was 2 ng/mL and 40 ng/mL, respectively. HepG2 growth medium was removed from the culture plates, and cells were treated with the appropriate mixes of fusion protein and cytokine. Treatment duration was for 20-24 h at 37° C. (5% CO2). All treatments were performed in technical duplicates and at least one or two independent experiments were conducted for each cytokine. At the end of the treatment period, supernatants were transferred to a new plate, and centrifuged at 300 RPM for 3 min. Forty microlitres of supernatant from each condition was transferred to a new plate, onto which 180 μL of Quanti-Blue reagent was added. Quanti-Blue reagent was prepared following the manufacturer's instructions. Samples were incubated for 5-6 h with Quanti-Blue reagent at 37° C. […]

BMP-9 [1] = target: T1, BMP-9; test: Small-scale BMP-9 ELISA with CHO supernatants; assay type: binding; conditions: BMP-9 10 ng/mL
Experimental: Small-scale testing of ActRIIB-ECD fusion proteins. Additional investigation of a series of exemplary agents was performed using proteins expressed in CHO cells. Briefly, DNA encoding the ActRIIB-ECD-Fc fusion constructs was transfected in cells seeded in 12-well plates in a final volume of 1 ml. After 7 days, the supernatant was harvested, clarified, and the amount of expressed protein in each well was quantified using standard methods. The potency of each agent for inhibition of activin A, BMP-9 and BMP-10 was determined in three separate assays.
The next day, the plate was washed three times. […] Expressed proteins in the supernatants were diluted 1 in 2 in assay diluent (0.5% BSA, 0.05% tween-20 in PBS) and 100 μl was added to the 96-well plate in technical duplicates. After a 1.5-hour incubation at RT, the plate was washed three times. […] In this assay, a loss of signal indicates less binding of the exemplary agent to BMP-9. Results are expressed as a % of the signal obtained with wild-type ActRIIB-Fc (P75).

[2] = SEC-HPLC monomer and HMW content of purified fusion proteins; assay type: physicochemical; conditions: after Protein A purification
Description: Given that protein aggregation can be indicative of reduced conformational stability and decreased activity, Size-Exclusion Chromatography-High Performance Liquid Chromatography (SEC-HPLC) was used to determine the purity of each ActRIIB-ECD construct. This method measured the percentage of intact monomeric species as well as the presence of aggregates and/or degradation products.
All proteins expressed efficiently in CHO and/or 293 cells and purification efficiency of each using Protein A affinity chromatography was similar.

[3] = target: T2, recombinant human activin A; test: cell-based or functional assay
activin B = target: T3, activin B; test: cell-based or functional assay
GDF-8 = GDF-8 (UniProt O14793 267-375); test: cell-based or functional assay
GDF-11 = GDF-11 (UniProt O95390 299-407); test: cell-based or functional assay
BMP-9 [4] = target: T4, BMP-9; test: cell-based or functional assay
BMP-10 = target: T5, BMP-10; test: cell-based or functional assay

GDF-11, sequence (O95390 299-407 limits assumed): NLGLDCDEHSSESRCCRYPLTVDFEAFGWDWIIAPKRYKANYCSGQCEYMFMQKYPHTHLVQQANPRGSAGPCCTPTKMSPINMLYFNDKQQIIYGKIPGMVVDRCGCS

BMP-9 binding, ELISA signal relative to P75 (BMP-9 [1]) | Activin A IC50; TGFβ-reporter HEK293 cells [3] | Activin B IC50; TGFβ-reporter HEK293 cells (activin B) | GDF-8 IC50; TGFβ-reporter HEK293 cells (GDF-8) | GDF-11 IC50; TGFβ-reporter HEK293 cells (GDF-11) | BMP-9 IC50; BMP-reporter HepG2 cells (BMP-9 [4]) | BMP-10 IC50; BMP-reporter HepG2 cells (BMP-10) | Molecule | impact of modifications in the Fc sequence on activin A, activin B, GDF-8, and GDF-11 potency (TGFβ superfamily ligands) | high molecular weight (HMW) content (SEC-HPLC) [2] | monomer content (SEC-HPLC) [2]
near-undetectable binding to BMP-9 | – | – | – | – | – | – | P1374: hActRIIB L33W, 19 aa linker, IgG1 Y-DL Fc; SEQ ID 233 (protein) ETRECIYYNANWELERTNQSGLERCEGEQDKRWHCYASWRNSSGTIELVKKGCWLDDFNCYDRQECVATEENPQVYFCCCEGNFCNERFTHLPEAGGPEVTYEPPPTGGGGSGGGGSGGGGSGGGG[human IgG1 Fc with changes not spelt out] | comparable to P1373 | 0% | 99%
– | 0.55 nM | 1.9 nM | 0.48 nM | 0.39 nM | > 1000 nM | > 100 nM | P1409 (Fc fusion) ETRECIYYNANWEQERTNQSGLERCEGEQDKRWHCYASWRNSSGTIELVKKGCWLDDFNCYDRQECVATEENPQVYFCCCEGNFCNERFTHLPEAGGPEVTYEPPPTGGGGSGGGGSGGGGSGG[human IgG1 Fc and a few adjoining residues not spelt out] | – | – | –
